{"source": "PubChem BioAssay AID445", "about": "(National Center for Advancing Translational Sciences (NCATS), 2006)", "note": "Values joined by “and” are separate entries in the source; they are usually repeats but may differ in a detail not shown here. Equal entries are not always repeated. Out of some 110,000 compounds screened, about 40 (0.04%) were called active. This list was built around the results that the source calls inconclusive (neither active nor inactive); the mix of calls is not that of the screen. Calls come from the whole dose curve; as a rule, active = well fitted curve in the direction sought with a large enough effect in the signal ratio (not every such curve was filed as active); inconclusive = small, poorly fitted or top-dose-only effect, or a change in a side signal; inactive = flat fitted curve, though single readings scatter; the % refers to the signal ratio. Potencies beside an inconclusive call are fits to weak or partial responses and may not hold up. Potency is the fitted concentration of half-maximal effect.", "data": [{"assay": "IkB Signaling;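 for IkBa stabilization activation: 0% = basal untreated cells and 100% = reference inhibitor full response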", "conditions": "ABC-DLBCL IkBa-CBG/CBR dual luciferase ratio (green luciferase fused to IkBa over red control in OCI-Ly3 lymphoma cells), 4 h; IkBa stabilization activation: at 57.1 µM (top of the series), scaled: untreated 0%, proteasome inhibitor 100% unless noted", "how_it_was_run": "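In this assay, an IκBα–CBG68 fusion accumulates when IKK-driven degradation is blocked; native CBR normalizes for cell number. OCI-Ly3 cells were treated 4 h with compound and doxycycline, then green and red light read after Chroma-Glo addition.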", "values": [{"smiles": "CCc1nnc(SCc2ccc(F)cc2Cl)c2cc3sc(C)cc3n12", "IkBa stabilization activation": "inactive"}, {"smiles": "CCc1ccc(OCC(=O)NCc2ccco2)c(Br)c1", "IkBa stabilization activation": "inconclusive: 12.3% [signal inhibitor]"}, {"smiles": "O=C(Nc1ccc(N2CCOCC2)cc1)c1cnsn1", "Potency": "inconclusive: 25.1 µM [signal inhibitor, partial curve]"}, {"smiles": "O=C(Nc1cccc(Cl)c1)c1cc(-c2ccccc2)on1", "Potency": "inconclusive: 15.8 µM [signal inhibitor, partial curve]"}, {"smiles": "O=C(c1cc2ccccc2o1)c1cccs1", "IkBa stabilization activation": "inactive"}, {"smiles": "COc1ccc(CNC(=O)CCCc2nnc3n(CCC(C)C)c(=O)c4sccc4n23)cc1", "IkBa stabilization activation": "inactive"}, {"smiles": "O=c1[nH]c(C2CCCN(S(=O)(=O)c3ccccc3Cl)C2)nc2c1nnn2Cc1ccc(OC(F)(F)F)cc1", "note": "(centres undefined)", "IkBa stabilization activation": "inconclusive: 2.04% [signal inhibitor]"}, {"smiles": "CCc1nn(CCCC(=O)N2CCN(c3ccc(OC)cc3)CC2)c(=O)c2cc3occc3n12", "IkBa stabilization activation": "inconclusive: -0.21% [signal inhibitor]"}, {"smiles": "Cc1c(-c2cccc(NC(=O)Nc3ccccc3)c2)nc2ncccn12", "IkBa stabilization activation": "inconclusive: 1.47% [signal inhibitor]"}, {"smiles": "Cc1cccc(CNc2cc(-c3ccccc3C)ncn2)c1", "IkBa stabilization activation": "inactive: -0.972% [at 11.4 µM, scaled: untreated 0%, proteasome inhibitor 100%]"}, {"smiles": "CCOC(=O)c1ccccc1NC(=O)c1ccc2c(Cl)c3c(nc2c1)CCC3", "IkBa stabilization activation": "inconclusive: 8.22% [signal inhibitor]"}, {"smiles": "CNC(=O)[C@@H]1O[C@@H](n2cnc3c(NCc4ccc(N)cc4)ncnc32)[C@@H](O)[C@H]1O", "IkBa stabilization activation": "inconclusive: 2.19% [signal activator]"}, {"smiles": "Cc1nc2cnc(OCc3ccccc3)nc2n(CCC#N)c1=O", "IkBa stabilization activation": "inactive: 0.811% [at 11.4 µM, scaled: untreated 0%, proteasome inhibitor 100%]"}, {"smiles": "COc1cc2oc(=O)c(CC(=O)NCc3ccc(OC)c(OC)c3)c(C)c2cc1Cl", "IkBa stabilization activation": "inactive"}, {"smiles": "COc1ccc(N(C)C(=O)c2nc(-c3cccc(F)c3)n3c2CCCCC3)c(OC)c1", "IkBa stabilization activation": "inconclusive: 0.114% [signal inhibitor]"}, {"smiles": "Cc1c(Cl)cccc1NC(=O)c1cc2sccc2n1Cc1ccc(F)cc1", "IkBa stabilization activation": "inactive"}, {"smiles": "Cc1ccc(-c2cc(C(=O)N3CCCC3)no2)cc1", "Potency": "inconclusive: 12.6 µM [signal inhibitor, partial curve]"}, {"smiles": "CCc1ccccc1Nc1nn2c(=O)c3ccc(C(=O)Nc4ccc(OC)cc4)cc3nc2s1", "IkBa stabilization activation": "inactive"}, {"smiles": "Cc1cccn2c(=O)c(C=Nc3ccc(Cl)cc3)c(NCCO)nc12", "IkBa stabilization activation": "inconclusive: 12.8% [signal inhibitor]"}, {"smiles": "O=C(CSc1nc2ccccc2nc1Cc1ccccc1)N1CCN(c2ccccc2)CC1", "IkBa stabilization activation": "inconclusive: 0.541% [signal inhibitor]"}, {"smiles": "CC(=O)Nc1cc(-c2ccccc2)nn1Cc1cccc(Cl)c1", "IkBa stabilization activation": "inconclusive: -0.92% [signal inhibitor]"}, {"smiles": "Cc1cccc(-c2noc(-c3ccccc3C(=O)NCC3CCCO3)n2)c1", "note": "(centres undefined)", "IkBa stabilization activation": "inactive"}, {"smiles": "CC12CCC(c3c(C(=O)Nc4nccs4)nn(-c4ccccc4)c31)C2(C)C", "note": "(centres undefined)", "IkBa stabilization activation": "inconclusive: 4.07% [signal inhibitor]"}, {"smiles": "Cc1nnc2sc(-c3csc4c3CCCC4)nn12", "IkBa stabilization activation": "inactive"}, {"smiles": "Cc1noc(NS(=O)(=O)c2ccc(NC(=O)c3ccc(Br)cc3)cc2)c1C", "IkBa stabilization activation": "inconclusive: 3.46% [signal inhibitor]"}, {"smiles": "Cc1ccc(OCc2nnc(SCC(=O)CC(=O)Nc3ccccc3)o2)cc1", "IkBa stabilization activation": "inconclusive: 8.02% [signal inhibitor]"}, {"smiles": "CN(C)c1cc(NC(=O)CN2CCOCC2)c2ccccc2n1", "IkBa stabilization activation": "inactive"}, {"smiles": "COc1ccc(C2C3=C(N=C4SCC(=O)N42)c2ccccc2CC3)cc1", "note": "(centres undefined)", "IkBa stabilization activation": "inactive"}, {"smiles": "Cc1c(Cl)cccc1NC(=O)c1ccc2nc(C(C)C)oc2c1", "IkBa stabilization activation": "inconclusive: 4.55% [signal inhibitor]"}, {"smiles": "O=C(O)c1cccc(C[C@H](Br)C(=O)O)c1", "IkBa stabilization activation": "inactive: 0.277% [at 11.4 µM, scaled: untreated 0%, proteasome inhibitor 100%]"}, {"smiles": "Cc1onc(-c2c(F)cccc2Cl)c1C(=O)NCc1ccco1", "Potency": "inconclusive: 31.6 µM [rising, partial curve]"}, {"smiles": "CC(C)(C)c1ccc(-c2nnc3sc(-c4ccccn4)nn23)cc1", "Potency": "inconclusive: 15.8 µM [signal inhibitor, partial curve]"}, {"smiles": "CCC(=O)Nc1ccccc1-c1nc2ccccc2n(C(C)C(=O)Nc2ccc(OC)cc2)c1=O", "note": "(centres undefined)", "IkBa stabilization activation": "inconclusive: 1.1% [signal inhibitor]"}, {"smiles": "O=C(O)c1ccc(N2C(=O)c3[nH]nc(-c4ccccc4)c3C2c2cccc(F)c2)cc1", "note": "(centres undefined)", "IkBa stabilization activation": "inconclusive: 2.93% [signal inhibitor]"}, {"smiles": "N=c1c(C(=O)NCc2ccc(F)cc2)cc2c(=O)n3ccccc3nc2n1Cc1ccco1", "IkBa stabilization activation": "inactive"}, {"smiles": "COC(=O)[C@](C)(N)Cc1ccc(O)cc1", "IkBa stabilization activation": "inactive"}, {"smiles": "CN(c1ccccc1)c1ncnc2c1cnn2C", "IkBa stabilization activation": "inactive"}, {"smiles": "COc1cccc(C2C(=O)N(C3CCCCC3)CC(=O)N2Cc2ccc(Cl)cc2)c1", "note": "(centres undefined)", "IkBa stabilization activation": "inconclusive: -1.15% [signal inhibitor]"}, {"smiles": "CCc1ccc(C2C(C(=O)Nc3ccc(Cl)cc3)=C(C)Nc3ncnn32)cc1", "note": "(centres undefined)", "IkBa stabilization activation": "inactive"}, {"smiles": "Cc1ccc2c(c1)C(=O)OC(C(=O)Nc1ncc(Cc3ccccc3)s1)C2", "note": "(centres undefined)", "IkBa stabilization activation": "inconclusive: 2.93% [signal inhibitor]"}, {"smiles": "CC1Cc2cc(S(=O)(=O)CCC(=O)Nc3ccc(Cl)cc3F)ccc2N1C(=O)C1CC1", "note": "(centres undefined)", "IkBa stabilization activation": "inconclusive: -0.86% [signal inhibitor]"}, {"smiles": "COc1ccc(CCC(=O)NCc2nc3cccnc3n2Cc2ccccc2)cc1", "IkBa stabilization activation": "inactive"}, {"smiles": "Cn1c(=O)[nH]c(=O)c2c1nc(CN1CCN(c3ccc(F)cc3)CC1)n2CCc1ccccc1", "IkBa stabilization activation": "inactive"}, {"smiles": "CC(C)Oc1ccc(C(=O)Nc2ccc(-c3nc4ccccc4s3)cc2)cc1", "IkBa stabilization activation": "inconclusive: -1.79% [signal inhibitor]"}, {"smiles": "CC(C)N(Cc1nc(-c2ccccc2)no1)C(=O)c1ccc(Br)o1", "IkBa stabilization activation": "inconclusive: -0.42% [signal inhibitor]"}, {"smiles": "CCCn1c(=NC(C)=O)c(C#N)cc2c(=O)n3cccc(C)c3nc21", "IkBa stabilization activation": "inactive"}, {"smiles": "COc1ccccc1C(=O)Nc1cc(-c2ccc(C)cc2)no1", "IkBa stabilization activation": "inconclusive: 1.13% [signal inhibitor]"}, {"smiles": "Cc1ccccc1Cn1c(CN2CCN(c3cc(Cl)ccc3C)CC2)nc2c1c(=O)[nH]c(=O)n2C", "IkBa stabilization activation": "inconclusive: 3.45% [signal inhibitor]"}, {"smiles": "CCNc1ncc2nc(-c3cn(C)c4ccccc34)c(=O)n(C)c2n1", "IkBa stabilization activation": "inactive: 0.444% [at 11.4 µM, scaled: untreated 0%, proteasome inhibitor 100%]"}, {"smiles": "O=C(CC(=O)c1ccccc1)Nc1ccc2c(c1)OCCO2", "Potency": "inconclusive: 25.1 µM [signal inhibitor, partial curve]"}, {"smiles": "COc1ccc(CCNC(=O)CCc2c(C)c3cc4c(C)coc4cc3oc2=O)cc1", "IkBa stabilization activation": "inconclusive: 3.31% [signal inhibitor]"}, {"smiles": "CC(/C=C/C=C(C)/C=C/C(=O)O)=C\\C=C\\C=C(C)\\C=C\\C=C(C)\\C=C\\C(=O)O", "IkBa stabilization activation": "inactive"}, {"smiles": "Cc1ccc(C)c(N2CCN(C(=O)c3cc4sccc4n3C)CC2)c1", "IkBa stabilization activation": "inconclusive: 10% [signal inhibitor]"}, {"smiles": "CCN(CC)S(=O)(=O)c1ccc2c(c1)N(CC(=O)NCc1ccc(F)cc1)C(=O)CO2", "IkBa stabilization activation": "inconclusive: 0.486% [signal inhibitor]"}, {"smiles": "Cc1cc(N2CCN(c3cccc(C(F)(F)F)c3)CC2)n2nc(-c3ccccc3C)nc2n1", "IkBa stabilization activation": "inconclusive: 2.03% [signal inhibitor]"}, {"smiles": "Cc1ccc2oc(=O)c3cnn(CC(=O)N4CCN(c5cccc(C(F)(F)F)c5)CC4)c3c2c1", "IkBa stabilization activation": "inconclusive: 3.17% [signal inhibitor]"}, {"smiles": "O=S(=O)(c1cccc(C(F)(F)F)c1)N1CCC(Oc2ccc(-n3cnnn3)cc2)CC1", "IkBa stabilization activation": "inconclusive: 1.2% [signal inhibitor]"}, {"smiles": "COc1ccc(NC(=O)C2=C(C)Nc3c(C(=O)Nc4ccc(C)cc4)cnn3C2c2cc(OC)ccc2OC)cc1", "note": "(centres undefined)", "IkBa stabilization activation": "inconclusive: 1.34% [signal inhibitor]"}, {"smiles": "CC(C)NC(=O)N1CC2(CCN(C(=O)c3ccco3)CC2)C1", "IkBa stabilization activation": "inactive: 2.85% [at 11.4 µM, scaled: untreated 0%, proteasome inhibitor 100%]"}, {"smiles": "COc1ccccc1NC(=O)CSc1nc2nc(C)cc(C)c2c(=O)[nH]1", "IkBa stabilization activation": "inactive"}, {"smiles": "Cc1cc(C)c2oc(-c3cc(NC(=O)Cc4ccccc4)ccc3Cl)nc2c1", "IkBa stabilization activation": "inconclusive: 2.16% [signal inhibitor]"}, {"smiles": "COc1cccc(NC(=O)Cn2c(=O)n(Cc3ccccc3)c(=O)c3c2c2cc(C)ccc2n3C)c1", "IkBa stabilization activation": "inconclusive: 1.51% [signal inhibitor]"}, {"smiles": "O=C(Nc1ccc([N+](=O)[O-])cc1Cl)c1cc(Cl)ccc1O", "Potency": "inconclusive: 3.98 nM [signal inhibitor, full curve, poor fit] and inconclusive: 316 nM [signal inhibitor, full curve, poor fit]"}, {"smiles": "CN(C)c1ccc(C2CC(c3c(O)n(C4CCCCC4)c(=O)[nH]c3=O)=Nc3ccccc3S2)cc1", "note": "(centres undefined)", "IkBa stabilization activation": "inactive"}, {"smiles": "N#Cc1c(N)n[nH]c1-c1cc2c([nH]1)CCCC2", "IkBa stabilization activation": "inconclusive: 1.48% [signal inhibitor]"}, {"smiles": "CCC1CCCCN1C(=O)Cn1c(C(=O)OC)cc2sc(Cl)cc21", "note": "(centres undefined)", "IkBa stabilization activation": "inactive"}, {"smiles": "COc1cc2c(cc1OC)-c1nnc(-c3cccs3)n1C(C)(C)C2", "IkBa stabilization activation": "inactive"}, {"smiles": "COc1cc(OC)c(OC)cc1CN1CCc2nc(N3CCN(c4ccccc4F)CC3)ncc2C1", "IkBa stabilization activation": "inconclusive: 3.29% [signal inhibitor]"}, {"smiles": "Cc1ccc2c(C)c(C(=O)N3CCC(c4nc5ccccc5s4)CC3)oc2c1C", "IkBa stabilization activation": "inconclusive: -0.713% [signal inhibitor]"}]}]}
